Data published in patent US10925856B2, “Methods and compositions involving bucindolol for the treatment of atrial fibrillation” (priority 2018, dated 2021).

Tests used:
[1] = tested on: HFrEF patients with the ADRB1 Arg389Arg genotype at high risk for recurrent AF; assay: GENETIC-AF: time to symptomatic AF/AFL or ACM (Phase 3 primary endpoint); format: in vivo, human; conditions: for hazard ratio, Phase 3 (symptomatic AF/AFL or ACM): covariate adjusted
[2] = tested on: HFrEF patients with the ADRB1 Arg389Arg genotype; assay: GENETIC-AF secondary and heart failure endpoints (VT/VF/SVT, hospitalization, ACM); format: in vivo; conditions: for ACM / ACM or HF hospitalization / ACM or HF hospitalization, number of patients / ACM, number of patients / HF hospitalization / HF hospitalization, number of patients: Total Study Period
[3] = tested on: HFrEF patients with the ADRB1 Arg389Arg genotype with implanted Medtronic devices; assay: GENETIC-AF AF burden (AFB) device substudy: continuous monitoring, AF/AFL event = AF burden ≥6 hours per day; format: in vivo, human
[4] = Entire cohort, listed as Bucindolol
[5] = GENETIC-AF U.S. LVEF ≤0.35, 24 week follow-up
[6] = GENETIC-AF U.S. LVEF ≤0.35, bucindolol vs metoprolol, unadjusted
[7] = GENETIC-AF, all randomized patients
[8] = − PM (CYP2D6 PMs excluded), LVEF <0.39 or LVEF 0.39-0.49 with HF Duration - AF Duration >= −30 days

## CC(C)(Cc1c[nH]c2ccccc12)NCC(O)COc1ccccc1C#N (stereo not drawn) [bucindolol, 2-(3-(1-(1H-indol-3-yl)-2-methylpropan-2-ylamino)-2-hydroxypropoxy)benzonitrile]
[1]; Canada (n = 59)
  hazard ratio, Phase 3 (symptomatic AF/AFL or ACM): 1.60
[1]; Entire cohort (n = 267)
  hazard ratio, Phase 3 (symptomatic AF/AFL or ACM): 1.02
[1]; Europe (n = 81)
  hazard ratio, Phase 3 (symptomatic AF/AFL or ACM): 1.04
[1]; U.S. (n = 127)
  hazard ratio, Phase 3 (symptomatic AF/AFL or ACM): 0.73
[1]; entire cohort, time to event curves
  Time to symptomatic AF/AFL or ACM, difference in effectiveness: do not suggest a difference in effectiveness
[2]; Entire cohort
  AF/AFL/ACM or HF Hospitalization during Total Study Period: (63.4%)
  Total All-cause Hospitalization during Total Study Period: 2.8 ± 8.1 days/patient
  VT, VF or Sx SVT during the 24-Week Follow-up Period: (1.5%)
  ACM: (2.3%)
  ACM or HF hospitalization: 8.2%
  ACM or HF hospitalization, number of patients: 11
  ACM, number of patients: 3
  HF hospitalization: 7.5%
  HF hospitalization, number of patients: 10
[2]; [4]
  ACM or HF hospitalization: (8%)
  HF hospitalization: (7.5%)
[2]; [5]
  ACM events: 0 (0%)
  ACM events/pts (%): 0 (0%)
  ACM/CVH events: 3
  ACM/CVH events/pts (%): 5.0%
  ACM/HFH events: 2
  ACM/HFH events/pts (%): 3.3%
  CVH events: 3
  CVH events/pts (%): 5.0%
  CVM events: 0 (0%)
  CVM events/pts (%): 0 (0%)
  CVM/HFH events: 2
  CVM/HFH events/pts (%): 3.3%
  HFH events: 2
  HFH events/pts (%): 3.3%
[2]; [6]
  ACM/CVH HzR: 0.56
  ACM/HFH HzR: 0.74
  CVH HzR: 0.84
  CVM/HFH HzR: 2.21
  HFH HzR: 2.21
[2]; [7]
  All-cause hospitalization: 20.1%
  All-cause mortality: 2.3%
  Cardiovascular hospitalization: 12.7%
  Cardiovascular mortality: 0.7%
  Heart failure hospitalization: 6.7%
  Heart failure mortality: 0.0%
[2]; U.S.
  AF/AFL/ACM or HF Hospitalization during Total Study Period: (70.0%)
  Total All-cause Hospitalization during Total Study Period: 3.3 ± 9.6 days/patient
  VT, VF or Sx SVT during the 24-Week Follow-up Period: (1.7%)
  ACM: (5.0%)
  ACM or HF hospitalization: (13.3%)
  ACM or HF hospitalization, number of patients: 8
  ACM, number of patients: 3
  HF hospitalization: (10.0%)
  HF hospitalization, number of patients: 6
[2]; in vivo
  All-cause hospitalization, % of patients: (20%)
  All-cause hospitalization, number of patients: 27
  Cardiovascular hospitalization, % of patients: (13%)
  Cardiovascular hospitalization, number of patients: 17
  Heart failure hospitalization, % of patients: (7%)
  Heart failure hospitalization, number of patients: 9
  Symptomatic SVT, % of patients: (0%)
  Symptomatic SVT, number of patients: 0
  VT >=15 sec or Required Therapy, % of patients: (2%)
  VT >=15 sec or Required Therapy, number of patients: 3
  Ventricular Flutter, % of patients: (1%)
  Ventricular Flutter, number of patients: 1
[2]; total study period
  All-cause mortality, % of patients: (2%)
  All-cause mortality, number of patients: 3
  Cardiovascular mortality, % of patients: (1%)
  Cardiovascular mortality, number of patients: 1
  Heart failure mortality, % of patients: (0%)
  Heart failure mortality, number of patients: 0
[2]; [8]
  ACM or HF hospitalization 24-wk f/u, % of patients: 4 (4%)
  ACM or HF hospitalization 24-wk f/u, number of patients: 4 (4%)
  ACM or HF hospitalization total f/u, % of patients: 9 (9%)
  ACM or HF hospitalization total f/u, number of patients: 9 (9%)
  ACM, total f/u (11.3 mos), % of patients: 2 (2%)
  ACM, total f/u (11.3 mos), number of patients: 2 (2%)
  All-cause mortality (ACM), 24-week f/u, % of patients: 0.0%
  All-cause mortality (ACM), 24-week f/u, number of patients: 0
  HF hospitalization 24-week f/u, % of patients: 4 (4%)
  HF hospitalization 24-week f/u, number of patients: 4 (4%)
  HF hospitalization total f/u, % of patients: 8 (8%)
  HF hospitalization total f/u, number of patients: 8 (8%)
[3]; 6-week intervals and entire 24-week period
  Reduction in AFB by bucindolol vs. metoprolol: not statistically significant
[3]; Censored at ECV, AF ablation, Class 3 antiarrhythmic drugs, week 1(d1-7)
  AFB ± SD: 4.8 ± 8.3
[3]; Censored at ECV, AF ablation, Class 3 antiarrhythmic drugs, week 2
  AFB ± SD: 7.1 ± 10.6
[3]; Censored at ECV, AF ablation, Class 3 antiarrhythmic drugs, week 3
  AFB ± SD: 7.4 ± 11.2
[3]; Censored at ECV, AF ablation, Class 3 antiarrhythmic drugs, week 4
  AFB ± SD: 8.5 ± 11.1
[3]; Censored at ECV, AF ablation, Class 3 antiarrhythmic drugs, week 5
  AFB ± SD: 7.8 ± 11.3
[3]; Censored at ECV, AF ablation, Class 3 antiarrhythmic drugs, week 6
  AFB ± SD: 7.8 ± 11.3
[3]; Censored at ECV, AF ablation, Class 3 antiarrhythmic drugs, week 7
  AFB ± SD: 6.7 ± 10.7
[3]; Censored at ECV, AF ablation, Class 3 antiarrhythmic drugs, week 8
  AFB ± SD: 7.0 ± 10.7
[3]; Censored at ECV, AF ablation, Class 3 antiarrhythmic drugs, week 9
  AFB ± SD: 6.0 ± 10.5
[3]; Censored at ECV, AF ablation, Class 3 antiarrhythmic drugs, week 10
  AFB ± SD: 5.6 ± 9.9
[3]; Censored at ECV, AF ablation, Class 3 antiarrhythmic drugs, week 11
  AFB ± SD: 7.2 ± 10.8
[3]; Censored at ECV, AF ablation, Class 3 antiarrhythmic drugs, week 12
  AFB ± SD: 7.4 ± 11.2
[3]; Censored at ECV, AF ablation, Class 3 antiarrhythmic drugs, week 13
  AFB ± SD: 5.4 ± 9.5
[3]; Censored at ECV, AF ablation, Class 3 antiarrhythmic drugs, week 14
  AFB ± SD: 4.7 ± 9.6
[3]; Censored at ECV, AF ablation, Class 3 antiarrhythmic drugs, week 15
  AFB ± SD: 2.7 ± 7.5
[3]; Censored at ECV, AF ablation, Class 3 antiarrhythmic drugs, week 16
  AFB ± SD: 3.9 ± 9.0
[3]; Censored at ECV, AF ablation, Class 3 antiarrhythmic drugs, week 17
  AFB ± SD: 4.0 ± 9.2
[3]; Censored at ECV, AF ablation, Class 3 antiarrhythmic drugs, week 18
  AFB ± SD: 3.5 ± 8.1
[3]; Censored at ECV, AF ablation, Class 3 antiarrhythmic drugs, week 19
  AFB ± SD: 3.1 ± 7.1
[3]; Censored at ECV, AF ablation, Class 3 antiarrhythmic drugs, week 20
  AFB ± SD: 3.1 ± 8.2
[3]; Censored at ECV, AF ablation, Class 3 antiarrhythmic drugs, week 21
  AFB ± SD: 1.6 ± 6.2
[3]; Censored at ECV, AF ablation, Class 3 antiarrhythmic drugs, week 22
  AFB ± SD: 1.6 ± 6.2
[3]; Censored at ECV, AF ablation, Class 3 antiarrhythmic drugs, week 23
  AFB ± SD: 1.7 ± 6.2
[3]; Censored at ECV, AF ablation, Class 3 antiarrhythmic drugs, week 24
  AFB ± SD: 2.0 ± 6.2
[3]; DxT12/DTRI-2 cohort, device-based detection N=49
  Hazard ratio, time to first AF/AFL/ACM, bucindolol vs. metoprolol: 0.59
[3]; U.S. AFB substudy cohort N=42
  Hazard ratio, time to first device-detected AF/AFL/ACM event, bucindolol vs. metoprolol: 0.49 and 0.50
[3]; Uncensored, week 1(d1-7)
  AFB ± SD: 4.8 ± 8.3
[3]; Uncensored, week 2
  AFB ± SD: 7.4 ± 10.7
[3]; Uncensored, week 3
  AFB ± SD: 7.9 ± 11.0
[3]; Uncensored, week 4
  AFB ± SD: 8.9 ± 11.1
[3]; Uncensored, week 5
  AFB ± SD: 8.9 ± 11.0
[3]; Uncensored, week 6
  AFB ± SD: 7.6 ± 10.6
[3]; Uncensored, week 7
  AFB ± SD: 7.5 ± 10.4
[3]; Uncensored, week 8
  AFB ± SD: 7.9 ± 10.6
[3]; Uncensored, week 9
  AFB ± SD: 6.1 ± 9.9
[3]; Uncensored, week 10
  AFB ± SD: 6.4 ± 10.0
[3]; Uncensored, week 11
  AFB ± SD: 7.3 ± 10.6
[3]; Uncensored, week 12
  AFB ± SD: 7.0 ± 10.8
[3]; Uncensored, week 13
  AFB ± SD: 5.6 ± 9.5
[3]; Uncensored, week 14
  AFB ± SD: 5.2 ± 9.1
[3]; Uncensored, week 15
  AFB ± SD: 3.5 ± 8.1
[3]; Uncensored, week 16
  AFB ± SD: 5.0 ± 9.6
[3]; Uncensored, week 17
  AFB ± SD: 3.9 ± 8.6
[3]; Uncensored, week 18
  AFB ± SD: 3.8 ± 8.0
[3]; Uncensored, week 19
  AFB ± SD: 5.0 ± 9.2
[3]; Uncensored, week 20
  AFB ± SD: 5.1 ± 9.9
[3]; Uncensored, week 21
  AFB ± SD: 4.4 ± 9.4
[3]; Uncensored, week 22
  AFB ± SD: 4.2 ± 8.9
[3]; Uncensored, week 23
  AFB ± SD: 3.7 ± 8.6
[3]; Uncensored, week 24
  AFB ± SD: 3.4 ± 8.0
[3]; device substudy population assessed by clinic-based 12-lead ECGs
  Hazard ratio, time to first AF/AFL/ACM, bucindolol vs. metoprolol: 0.69
[3]; entire AFB substudy cohort N=69, unadjusted
  Hazard ratio, time to first device-detected AF/AFL/ACM event, bucindolol vs. metoprolol: 0.75
[3]; ex-U.S. AFB cohort
  Hazard ratio, time to first device-detected AF/AFL/ACM event, bucindolol vs. metoprolol: 1.32
[3]; interim analysis
  Hazard ratio, AF burden substudy endpoint, bucindolol vs. metoprolol: 0.84

Values joined by “and” are separate entries in the source; they are usually repeats but may differ in a detail not shown here. Identical values can stand only once.
